Data published in PubChem BioAssay AID1508624 (National Center for Advancing Translational Sciences (NCATS), 2021).
Out of some 48,000 compounds screened, about 120 (0.25%) were called active. Inconclusive results (about 4%) are left out. Calls follow the shape of the dose curve; as a rule, active = well fitted activation curve with a large enough effect; inconclusive = small, poorly fitted or top-dose-only effect, or another doubt; inactive = no such curve, though single readings can be large or run the other way. This is one part of the list.

Test: Primary qHTS for Identification of Small Molecule Activators of Huntingtin-Antisense Promoter Activity; also: nearly all actives have a fitted effect of over 55% in size
Details: HEK293 HTT-AS promoter firefly luciferase reporter (activity 0% = vehicle and -100% = no light), 24 h; series mostly up to 57.5 µM; activity change, positive = activation: at the top concentration
Summary of the method: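 HEK293 luciferase promoter-reporter cells (2,500/well) plated 24 h, then compounds added at up to 57.5 uM final for 24 h at 37 °C. Firefly luminescence by Dual-Glo, normalized to vehicle (0%) and zero RLU (-100%).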

Activity change, positive = activation, inactive:
CCCn1cc(S(=O)(=O)c2ccc(CC)cc2)c(=O)c2cc(F)c(N3CCN(C)CC3)cc21 -5.2%
COc1ccc(OC)c(CCNC(=O)c2nn(C)c3c2CSc2ccccc2-3)c1 -18.2%
CCC1CCc2c(sc(NC(=O)C3c4ccccc4Oc4ccccc43)c2C(=O)OC)C1 (stereo unspecified) -26.9%
Cc1ccc(C(=O)c2oc3ccccc3c2NC(=O)C(C)Oc2ccccc2Cl)cc1 (stereo unspecified) -6.11%
CCOC(=O)N1CCC(NC(=O)c2ccc3c(c2)N(Cc2ccc(Cl)cc2)C(=O)c2ccccc2S3(=O)=O)CC1 -32%
COC(=O)c1sc2cccc(F)c2c1S(=O)(=O)Nc1cc(C)c(Cl)cc1OC -24.7%
CCCNC(=O)C1CCC(Cn2c(=O)c3sccc3n(CC(=O)N3CCCC3)c2=O)CC1 (stereo unspecified) -6%
CCc1cccc(C)c1NC(=O)CN1C(=O)c2ccccc2Sc2ncccc21 -12.5%
CCCNC(=O)CN1C(=O)c2c(c3ccccc3n2C)C1c1ccc(OC)cc1 (stereo unspecified) -22%
COc1ccc(CNC(=O)c2cc3oc4ccccc4c3n2C)cc1OC -22.5%
CN[C@@H]1[C@@H](O)[C@@H](O[C@@H]2[C@H](O)[C@H](O[C@H]3OC(CN)=CC[C@H]3N)[C@@H](N)C[C@H]2N)OCC1(C)O (stereo partly specified) -1.2%
CCc1ccc(S(=O)(=O)c2nnn3c2nc(N2CCC(C(N)=O)CC2)c2cc(Cl)ccc23)cc1 -14.1%
CCCCOc1ccc(OCCCN2CCOCC2)cc1 2.65%
CCC(=O)Nc1ccccc1-c1nc2ccccc2n(CC(=O)Nc2ccc(C)c(C)c2)c1=O -19.9%
CCc1ccc(NC(=O)C2CCN(S(=O)(=O)c3c(C)noc3C)CC2)cc1 -14.7%
Cn1c(=O)c2cc(C(=O)Nc3cccc(C#N)c3)sc2c2ccccc21 -5.48%
COc1ccc(C2=NN(CC(=O)NCCc3ccccc3)C(=O)CC2)cc1 -8.26%
COC(=O)c1ccc(NC(=O)NC(C)c2c(-n3cccc3)sc(C)c2C)cc1 (stereo unspecified) -19.2%
COc1ccc(Cl)cc1NC(=O)c1sc2nc(-c3ccc(OC)c(OC)c3)ccc2c1N -33%
O=C(NCc1ccccc1)c1ccc2c(c1)N(Cc1ccc(F)cc1)CCS2 -23.8%
COc1ccc(CCNC(=O)CSCc2nc(-c3cccc(C)c3)oc2C)cc1OC -33.5%
O=C(NC1CCCC1)c1ccc(CSc2nc3cccnc3n2Cc2ccccc2)cc1 -19.8%
COc1ccccc1Cc1nc2ccccc2nc1SCC(=O)N1CCc2ccccc21 0.231%
COc1cc(N)c(Cl)cc1C(=O)NC1CCN(Cc2ccccc2)CC1 -12%
CCOC(=O)c1ccc(NC(=O)CSc2nccn2-c2ccc(OCC)cc2)cc1 -32.5%
FC(F)(F)c1cccc(-c2nnn3c2nc(NC2CCCCC2)c2ccccc23)c1 -3.01%
Cc1cccc(N2CCN(C(=O)Cn3cnc4sc(C)c(S(=O)(=O)N5CCN(c6ncccn6)CC5)c4c3=O)CC2C)c1 (stereo unspecified) -17.2%
CCC(C)NC(=O)C1CCN(C(=O)c2ccc(-n3ccc4ccccc43)s2)CC1 (stereo unspecified) 9.09%
COc1ccccc1CCNC(=O)Cc1c(C)c2c(cc(C)c3c(C)c(C)oc32)oc1=O -3.75%
COc1cc([N+](=O)[O-])ccc1NC(=O)N1CCN(c2cc(-c3noc(C)n3)ccc2C)CC1 -23.9%
S=P(N1CC1)(N1CC1)N1CC1
COc1ccc(NC(=O)C(C)n2nnc3sc(-c4ccccc4)cc3c2=O)cc1Cl (stereo unspecified) 19.1%
CCOc1ccc(CCNC(=O)c2cc(=O)[nH]c3ccc(S(=O)(=O)N4CCCCC4)cc23)cc1OCC -8.73%
CCOc1ccccc1CNC(=O)C1CCN(S(=O)(=O)c2c(C)noc2/C=C/c2ccc(C)cc2)CC1 -6.48%
CC(C)(C)NC(=O)Nc1cccc(Nc2ncc(F)c(NC(C)(C)CO)n2)c1 -26.3%
CCn1ccc2cc(S(=O)(=O)N3CCCN(C(=O)Nc4ccc(C)c(F)c4)CC3)ccc21 -29.5%
CCCc1ccc(OCC(=O)Nc2sc3c(c2C(=O)OC)CCCCC3)cc1 -11.2%
CC(C)CC(=O)NCC1(N(C)C)CCCCC1 3.05%
Cc1cccc(N(C)c2nc3ccc(C)cc3n3cnnc23)c1 13.5%
CCCCOc1ccccc1C(=O)Nc1nonc1-c1ccccc1 -42%
COc1ccc(CNC(=O)C(C)N2Cc3ccccc3C2=O)cc1 (stereo unspecified) 5.79%
Cc1nc(-c2ccccc2)sc1CCNC(=O)C(=O)Nc1ccc2c(c1)OCCO2 -3.71%
Cc1ccc(CNC(=O)CCCN2C(=O)c3cccnc3Oc3ccc(Cl)cc32)cc1 -26.2%
COc1cc(OC)c(NC(=O)N2CCc3c(sc4c3CCCC4)C2c2ccccc2)cc1Cl (stereo unspecified) -18.2%
O=C(Nc1nnc(S(=O)(=O)N2CCCCCC2)s1)c1ccccc1Cl -16.7%
CCOc1ccc(NC(=O)c2cc3c(s2)-c2ccccc2OC3)cc1 -9.89%
Cc1cccc(NC(=O)C(Cc2ccccc2)n2cccc2)c1C (stereo unspecified) -19.4%
COc1cccc(CNC(=O)c2ccc(-c3nc(CS(=O)(=O)c4ccccc4)c(C)o3)cc2)c1 -36%
COC(=O)c1ccc2c(=O)n(CCCCCC(=O)N3CCN(c4cc(Cl)ccc4C)CC3)c(=O)[nH]c2c1 -64.7%
CN(C)CCNC(=O)CN1C(=O)CCn2nc(-c3cn(C)c4ccccc34)cc21 0.159%
Cc1cc(C)cc(-n2nnc(-c3nsc(NC(=O)c4ccccc4Cl)n3)c2C)c1 -22%
CCc1ccc(NC(=O)Cn2ncc3c(C)n(Cc4cccc(Cl)c4)c(C)c3c2=O)cc1 -5.36%
COc1ccccc1Nc1c2c(nc3ccc(NC(=O)c4cccc(OC)c4OC)cc13)CCCC2 -51.1%
COC(=O)c1cc2sccc2n1Cc1nc(-c2cccc(Br)c2)oc1C 6.42%
CC(=O)Nc1ccc(S(=O)(=O)NCc2ccc(C(=O)NCc3ccc(Cl)cc3)cc2)cc1 -28.1%
O=C(Nc1ccc(C(F)(F)F)cc1)C1CCCN(S(=O)(=O)c2cccc3cccnc23)C1 (stereo unspecified) -32.1%
CCC1CCCCN1C(=O)CSc1n[nH]c(-c2ccccc2Cl)n1 (stereo unspecified) 17.2%
CCN(c1ccc(OC)cc1)S(=O)(=O)c1nnc(NC(=O)c2ccccc2C)s1 -33.3%
Cc1ccccc1OCC(=O)Nc1ccc(OCc2cc(=O)n3ccsc3n2)cc1 -4.08%
CCOC(=O)c1cccc(NC(=O)N2CCC(CN3CCc4ccccc4C3)CC2)c1 -12.3%
O=C(Cc1ccc(F)cc1)NCc1nc2cccnc2n1Cc1ccc(F)cc1 -13.3%
